According to US9873709B2 (priority 2013, dated 2018):

Biological target: isolated recombinant JAK1 kinase domain (Homo sapiens (Human), UniProt P23458)
Conditions: read-out: JAK1 Ki; isolated recombinant JAK1 kinase domain, 25 μM ATP

SMILES | Ki [nM]
CC(CN(C)C)NC(=O)c1ccc(Nc2nc3c(N4CCC(O)(c5ccc(Cl)cc5)CC4)cccn3n2)cc1 (stereo not drawn) [Example 1-107, 4-[[8-[4-(4-chlorophenyl)-4-hydroxy-1-piperidyl]-[1,2,4]triazolo[1,5-a]pyridin-2-yl]amino]-N-[2-(dimethylamino)-1-methyl-ethyl]benzamide] | 2.77
CN(C)CCNC(=O)c1ccc(Nc2nc3c(N4CCC(O)(c5ccc(Cl)cc5)CC4)cccn3n2)cc1 [Example 1-108, 4-[[8-[4-(4-chlorophenyl)-4-hydroxy-1-piperidyl]-[1,2,4]triazolo[1,5-a]pyridin-2-yl]amino]-N-[2-(dimethylamino)ethyl] benzamide] | 2.77
Cc1cccnc1CN(C)C(=O)c1ccc(Nc2nc3c(N4CCC(O)(c5ccc(Cl)cc5)CC4)cccn3n2)cc1 [Example 1-109, 4-[[8-[4-(4-chlorophenyl)-4-hydroxy-1-piperidyl]-[1,2,4]triazolo[1,5-a]pyridin-2-yl]amino]-N-methyl-N-[(3-methyl-2-pyridyl)methyl]benzamide] | 4.08
O=C(c1ccc(Nc2nc3c(N4CCC(O)(c5ccc(Cl)cc5)CC4)cccn3n2)cc1)N1CCCCC1c1cccnc1 (stereo not drawn) [Example 1-110, [4-[[8-[4-(4-chlorophenyl)-4-hydroxy-1-piperidyl]-[1,2,4]triazolo[1,5-a]pyridin-2-yl]amino]phenyl]-[2-(3-pyridyl)-1-piperidyl]methanone] | 4.58
CN(Cc1ccncc1)C(=O)c1ccc(Nc2nc3c(N4CCC(O)(c5ccc(Cl)cc5)CC4)cccn3n2)cc1 [Example 1-111, 4-[[8-[4-(4-chlorophenyl)-4-hydroxy-1-piperidyl]-[1,2,4]triazolo[1,5-a]pyridin-2-yl]amino]-N-methyl-N-(4-pyridylmethyl)benzamide] | 1.49
CCN(Cc1ccncc1)C(=O)c1ccc(Nc2nc3c(N4CCC(O)(c5ccc(Cl)cc5)CC4)cccn3n2)cc1 [Example 1-115, 4-[[8-[4-(4-chlorophenyl)-4-hydroxy-1-piperidyl]-[1,2,4]triazolo[1,5-a]pyridin-2-yl]amino]-N-ethyl-N-(4-pyridylmethyl)benzamide] | 3.02
CC1CN(C2CCN(C(=O)c3ccc(Nc4nc5c(N6CCC(O)(c7ccc(Cl)cc7)CC6)cccn5n4)cc3)CC2)CC(C)O1 (stereo not drawn) [Example 1-118, [4-[[8-[4-(4-chlorophenyl)-4-hydroxy-1-piperidyl]-[1,2,4]triazolo[1,5-a]pyridin-2-yl]amino]phenyl]-[4-(2,6-dimethylmorpholin-4-yl)-1-piperidyl]methanone] | 2.69
COCCN(C(=O)c1ccc(Nc2nc3c(N4CCC(O)(c5ccc(Cl)cc5)CC4)cccn3n2)cc1)C1CCN(C)CC1 [Example 1-120, 4-[[8-[4-(4-chlorophenyl)-4-hydroxy-1-piperidyl]-[1,2,4]triazolo[1,5-a]pyridin-2-yl]amino]-N-(2-methoxyethyl)-N-(1-methyl-4-piperidyl)benzamide] | 5.1
O=C(c1ccc(Nc2nc3c(N4CCC(O)(c5ccc(Cl)cc5)CC4)cccn3n2)cc1)N1CCCCC1Cc1ccccn1 (stereo not drawn) [Example 1-121, [4-[[8-[4-(4-chlorophenyl)-4-hydroxy-1-piperidyl]-[1,2,4]triazolo[1,5-a]pyridin-2-yl]amino]phenyl]-[2-(2-pyridylmethyl)-1-piperidyl]methanone] | 2.97
CN1CCC(N(C(=O)c2ccc(Nc3nc4c(N5CCC(O)(c6ccc(Cl)cc6)CC5)cccn4n3)cc2)C2CC2)CC1 [Example 1-128, 4-[[8-[4-(4-chlorophenyl)-4-hydroxy-1-piperidyl]-[1,2,4]triazolo[1,5-a]pyridin-2-yl]amino]-N-cyclopropyl-N-(1-methyl-4-piperidyl)benzamide] | 4.48
CC(C)N1CCC(CN(C)C(=O)c2ccc(Nc3nc4c(N5CCC(O)(c6ccc(Cl)cc6)CC5)cccn4n3)cc2)C1 (stereo not drawn) [Example 1-129, 4-[[8-[4-(4-chlorophenyl)-4-hydroxy-1-piperidyl]-[1,2,4]triazolo[1,5-a]pyridin-2-yl]amino]-N-[(1-isopropylpyrrolidin-3-yl)methyl]-N-methyl-benzamide] | 1.87
CC(C)N1CCC(N(C)C(=O)c2ccc(Nc3nc4c(N5CCC(O)(c6ccc(Cl)cc6)CC5)cccn4n3)cc2)CC1 [Example 1-130, 4-[[8-[4-(4-chlorophenyl)-4-hydroxy-1-piperidyl]-[1,2,4]triazolo[1,5-a]pyridin-2-yl]amino]-N-(1-isopropyl-4-piperidyl)-N-methyl-benzamide] | 3.71

Results, then the compound that gave them:

Ki [nM] | SMILES
11.4 | O=C(c1ccc(Nc2nc3c(N4CCC(O)(c5ccc(Cl)cc5)CC4)cccn3n2)cc1)N1CCN(c2ccccn2)CC1 [Example 1-112, [4-[[8-[4-(4-chlorophenyl)-4-hydroxy-1-piperidyl]-[1,2,4]triazolo[1,5-a]pyridin-2-yl]amino]phenyl]-[4-(2-pyridyl)piperazin-1-yl]methanone]
1.64 | CN1CCN(C(=O)C2CCN(C(=O)c3ccc(Nc4nc5c(N6CCC(O)(c7ccc(Cl)cc7)CC6)cccn5n4)cc3)CC2)CC1 [Example 1-113, [4-[[8-[4-(4-chlorophenyl)-4-hydroxy-1-piperidyl]-[1,2,4]triazolo[1,5-a]pyridin-2-yl]amino]phenyl]-[4-(4-methylpiperazine-1-carbonyl)-1-piperidyl]methanone]
1.86 | O=C(c1ccc(Nc2nc3c(N4CCC(O)(c5ccc(Cl)cc5)CC4)cccn3n2)cc1)N1CCCN(c2ccncc2)CC1 [Example 1-114, [4-[[8-[4-(4-chlorophenyl)-4-hydroxy-1-piperidyl]-[1,2,4]triazolo[1,5-a]pyridin-2-yl]amino]phenyl]-[4-(4-pyridyl)-1,4-diazepan-1-yl]methanone]
2.95 | O=C(c1ccc(Nc2nc3c(N4CCC(O)(c5ccc(Cl)cc5)CC4)cccn3n2)cc1)N1CCN(CCn2ccnc2)CC1 [Example 1-116, [4-[[8-[4-(4-chlorophenyl)-4-hydroxy-1-piperidyl]-[1,2,4]triazolo[1,5-a]pyridin-2-yl]amino]phenyl]-[4-(2-imidazol-1-ylethyl)piperazin-1-yl]methanone]
2.52 | CN1CCN(C2CCN(C(=O)c3ccc(Nc4nc5c(N6CCC(O)(c7ccc(Cl)cc7)CC6)cccn5n4)cc3)CC2)CC1 [Example 1-117, [4-[[8-[4-(4-chlorophenyl)-4-hydroxy-1-piperidyl]-[1,2,4]triazolo[1,5-a]pyridin-2-yl]amino]phenyl]-[4-(4-methylpiperazin-1-yl)-1-piperidyl]methanone]
2.66 | O=C(c1ccc(Nc2nc3c(N4CCC(O)(c5ccc(Cl)cc5)CC4)cccn3n2)cc1)N1CCN(CCN2CCOCC2)CC1 [Example 1-119, [4-[[8-[4-(4-chlorophenyl)-4-hydroxy-1-piperidyl]-[1,2,4]triazolo[1,5-a]pyridin-2-yl]amino]phenyl]-[4-(2-morpholinoethyl)piperazin-1-yl]methanone]
2.71 | O=C(c1ccc(Nc2nc3c(N4CCC(O)(c5ccc(Cl)cc5)CC4)cccn3n2)cc1)N1CCN(Cc2ccccn2)CC1 [Example 1-122, [4-[[8-[4-(4-chlorophenyl)-4-hydroxy-1-piperidyl]-[1,2,4]triazolo[1,5-a]pyridin-2-yl]amino]phenyl]-[4-(2-pyridylmethyl)piperazin-1-yl]methanone]
2.57 | O=C(c1ccc(Nc2nc3c(N4CCC(O)(c5ccc(Cl)cc5)CC4)cccn3n2)cc1)N1CCN(Cc2cccnc2)CC1 [Example 1-123, [4-[[8-[4-(4-chlorophenyl)-4-hydroxy-1-piperidyl]-[1,2,4]triazolo[1,5-a]pyridin-2-yl]amino]phenyl]-[4-(3-pyridylmethyl)piperazin-1-yl]methanone]
5.42 | O=C(c1ccc(Nc2nc3c(N4CCC(O)(c5ccc(Cl)cc5)CC4)cccn3n2)cc1)N1CCCC1Cc1ccccn1 (stereo not drawn) [Example 1-124, [4-[[8-[4-(4-chlorophenyl)-4-hydroxy-1-piperidyl]-[1,2,4]triazolo[1,5-a]pyridin-2-yl]amino]phenyl]-[2-(2-pyridylmethyl)pyrrolidin-1-yl]methanone]
2.25 | O=C(c1ccc(Nc2nc3c(N4CCC(O)(c5ccc(Cl)cc5)CC4)cccn3n2)cc1)N1CCC(N2CCOCC2)CC1 [Example 1-125, [4-[[8-[4-(4-chlorophenyl)-4-hydroxy-1-piperidyl]-[1,2,4]triazolo[1,5-a]pyridin-2-yl]amino]phenyl]-(4-morpholino-1-piperidyl)methanone]
3.22 | O=C(c1ccc(Nc2nc3c(N4CCC(O)(c5ccc(Cl)cc5)CC4)cccn3n2)cc1)N1CCN(c2cccnc2)CC1 [Example 1-126, [4-[[8-[4-(4-chlorophenyl)-4-hydroxy-1-piperidyl]-[1,2,4]triazolo[1,5-a]pyridin-2-yl]amino]phenyl]-[4-(3-pyridyl)piperazin-1-yl]methanone]
1.99 | O=C(c1ccc(Nc2nc3c(N4CCC(O)(c5ccc(Cl)cc5)CC4)cccn3n2)cc1)N1CCC(N2CCOCC2)C1 (stereo not drawn) [Example 1-127, [4-[[8-[4-(4-chlorophenyl)-4-hydroxy-1-piperidyl]-[1,2,4]triazolo[1,5-a]pyridin-2-yl]amino]phenyl]-(3-morpholinopyrrolidin-1-yl)methanone]
7.2 | CC(C)CN1CCN(C(=O)c2ccc(Nc3nc4c(N5CCC(O)(c6ccc(Cl)cc6)CC5)cccn4n3)cc2)CC1 [Example 1-131, [4-[[8-[4-(4-chlorophenyl)-4-hydroxy-1-piperidyl]-[1,2,4]triazolo[1,5-a]pyridin-2-yl]amino]phenyl]-(4-isobutylpiperazin-1-yl)methanone]
2.79 | O=C(c1ccc(Nc2nc3c(N4CCC(O)(c5ccc(Cl)cc5)CC4)cccn3n2)cc1)N1CCC(N2CCCC2)CC1 [Example 1-132, [4-[[8-[4-(4-chlorophenyl)-4-hydroxy-1-piperidyl]-[1,2,4]triazolo[1,5-a]pyridin-2-yl]amino]phenyl]-(4-pyrrolidin-1-yl-1-piperidyl)methanone]
2.78 | COCCN1CCN(C(=O)c2ccc(Nc3nc4c(N5CCC(O)(c6ccc(Cl)cc6)CC5)cccn4n3)cc2)CC1 [Example 1-133, [4-[[8-[4-(4-chlorophenyl)-4-hydroxy-1-piperidyl]-[1,2,4]triazolo[1,5-a]pyridin-2-yl]amino]phenyl]-[4-(2-methoxyethyl)piperazin-1-yl]methanone]
